Reference: the RNAGym collection of RNA variant scans (doi:10.1073/pnas.2313332121)
Variants at the background level are over-represented here.

B1: TPR 5TU (parent)
chain: GGAUCUUCUCGAUCUAACAAAAAAGACAAAUCUGCCACAAAGCUUGAGAGCAUCUUCGGAUGCAGAGGCGGCAGCCUUCGGUGGCGCGAUAGCGCCAACGUUCUCAACUAUGACACGCAAAACGCGUGCUCCGUUGAAUGGAGUUUAUCAUG

Variants of: B1
Assay: polymerase ribozyme fitness, log enrichment relative to wild type (log ratio); higher = more active; in vitro selection for triplet polymerase activity
Summary of the method: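 A single round of triplicate in vitro selection, including frozen incubation at −7 °C, was applied to PCR-built, transcribed mutant libraries of each subunit of a heterodimeric triplet polymerase ribozyme. Illumina sequencing of input and output libraries retained genotypes with ≥10 input reads and ≥1 read per output. Fitness is the base-2 logarithm of genotype enrichment divided by wild-type enrichment, from inverse-variance-weighted replicate averages.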

GGAUCUUCUCGAUCUAACAAAAAAGACAAAUCUGCCACAUAGCUUGAGAGCUUCAUCGGAUGCAGAGGCGGCAGCCUUCGGUGGCGCGAUAGCGCCAACGUUCUCAACUAUGACACGCAAAACGCGUGCUCCGUUGAGUGGAGUUUAUCAUG and GGAUCUUCUCGAUCUAACAAAAAAGACAAAUCUGCCACAUAGCUUGAGAGCAUCUUCGGCUGCAGAGGCGGCAGCCUUCGGUGGCGCCAUAGCGCCAACGUUCUCAACUAUGACACGCAAUACGCUUGCUCCGUUGAAUGGAGUUUAUCAUG cannot be ordered by “polymerase ribozyme fitness (log ratio)” value: ≤ -4.2 for the first, ≤ -4.2 for the second.

First: GGAUCUUCUCGAUCUAACAAAAAAGACAAAUCUGCCACAUAGCUUGAGAGCAUCUUCGGGUGCAGUGGCGGCGGCCUUCGGUGGCGCGAUGGCGCCAAGGUUCUCAACUAUGACACGCAAAACGCGUGCUCCGUUGAAUGGAGUUUAUCAUG
Second: GGAUCUUCUCGAUCUAACAAAAAAGACAAAUCUGCCACAUAGCUUGAGAGCAUCUUCGGGUGCAGAGGCGGCAGCCUUCGGUGGCGCGUUAGCGCCAACGUUCUCAACUAUGACACGCAAAACGCGUGCUCCGCUGAAUGGAGUUUAUCAUG
The “polymerase ribozyme fitness (log ratio)” value of the first is lower: ≤ -4.2 for the first, -0.16 for the second.

First: GGAUCUUCUCGAUCUAACAAAAAAGACAAAUCUGCCACAUAGCUUGAGAGCAUCUUCGGUUGCAGAGGCGGCAGCCUUCGGUGGCGCGAUAGCGCCAACGUUCUCAACUAUGACACGCAAAACGCGUGCUCCGUUGAAUGGAGUUUAUCAUG
Second: GGAUCUUCUCGAUCUAACAAAAAAGACAAAUCUGCCACAUAGCUUGAGAGCAUCUUCGGUUGCAGAUGCGGCAACCUUCGGUGGCGCGAUAGCGCCAACGUUCUCAACUAUGACACGCAAAACGCGUGCUCCGUUGAAUGGAGUUUAUCAUG
The “polymerase ribozyme fitness (log ratio)” value of the first is higher: -0.238 for the first, ≤ -4.2 for the second.

Compared with GGAUCUUCUCGAUCUAACAAAAAAGACAAAUCUGCCACAUAGCUUGAGAGCAUCUUCGGAUGCAGAGGCGGCGGCCUUCGGUGGCGCGAUAGCGCCAAGGUUCUGAACUAUGACACGCAAAACGCGUGCUCCGUUGAAUGGAGUUUAUCAUG, GGAUCUUCUCGAUCUAACAAAAAAGACAAAUCUGCCACAUAGCUUGAGAGCAUCUUCGGAUGCAGAGGCGGCAGCCUUCGGUGGCGCGCUAGCGCCAACGUUCUCAACUAUGACACGCAAAACGCGUGCUCCGUUGAAUGGAGUUUAUCAUG is higher in “polymerase ribozyme fitness (log ratio)” value: ≤ -4.2 for the first, -0.129 for the second.

Compared with GGAUCUUCUCGAUCUAACAAAAAAGACAAAUCUGCCACAUAGCUUGAGAGCAUCUUCGGAUGCAGAGGCGGCAGCCUUCGGUGGCGCGAUAGCGCCGACGUUCUCAACUAUGACACGCAAAACUCGUGCUCCCUUGAAAGGAGUUUAGGAUG, GGAUCUUCUCGAUCUAACAAAAAAGACAAAUCUGCCACAUAGCUUGAGAGCAUCUUCGGAUGCAGAGGCGGCAGCCUUCGGUGGCGCGAUAGCGCCAACGUUCUCAACUAUGACACGCAUAACGCGUGCUCCCUUGAAUGGAGUUUAUCAUG is higher in “polymerase ribozyme fitness (log ratio)” value: ≤ -4.2 for the first, -1.72 for the second.

GGAUCUUCUCGAUCUAACAAAAAAGACAAAUCUGCCACAUAGCUUGAGAGAAUCUUCGAAUGCAGAGCCGGCAGCCUUCGGUGGCGCGAUAGCGCCAACGUUCUCAACUAUGACACGCAAAACGCGUGCUCCGUUGAAUGGAGUUUAUCAUG and GGAUCUUCUCGAUCUAACAAAAAAGACAAAUCUGCCACAUAGCUUGAGAGUAUCUUCGGAUGCAGAGGCGGCUGCCUUCGGUGGCGCGAUAGCGCCAACGUUGUCAACUAUGACACGCAAAACGCGUUCUCCGUUGAAUGGAGUUUAUCAUG cannot be ordered by “polymerase ribozyme fitness (log ratio)” value: ≤ -4.2 for the first, ≤ -4.2 for the second.

Going from GGAUCUUCUCGAUCUAACAAAAAAGACAAAUCUGCCACAUAGCUUGAGAGUAUCUUCGGAUGCAGAGGCGGCAGCCUUCGGUAGCGCGAUAGCGCCAACGUUCUCAACUAUGACACGCAAAACGCGUGCUCCGUUGAAUGGAGUUUAUCAUG to GGAUCUUCUCGAUCUAACAAAAAAGACAAAUCUGCCACAUAGCUUGAGAGCAUAUUCGGAUGCAGAGGCGGCAGCCUUCGGUGGCGCGAUAGCGCCAACGUUGUCAACUAUGACACGCAAAACGAGUGCUCCGUUGAAUGGAGUUUAUCAUG, the “polymerase ribozyme fitness (log ratio)” value falls from -0.935 to ≤ -4.2.

GGAUCUUCUCGAUCUAACAAAAAAGACAAAUCUGCCACAUAGCUUGAGAGCAUCUUCGGAUGCAGAGGUGGCAGCCUUCGGUGGGGCGAUAGCGCCAACGUUCGCAACUAUGACACGCAAAACGCGUGCUCCGUUGAAUGGAGUUGAUCAUG and GGAUCUUCUCGAUCUAACAAAAAAGACAAAUCUGCCACAUAGCUUGAGAGCAUCUUCGGAUGCAGAGGCGGCAGGCUUCGGUGGCGCGAUUGCGCCAACGUUCUCAACUAUGACACGCAAAACGCGUGCUCCGUUGAAUGGAGUUUAUCAUG cannot be ordered by “polymerase ribozyme fitness (log ratio)” value: ≤ -4.2 for the first, ≤ -4.2 for the second.

Compared with GGAUCUUCUCGAUCUAACAAAAAAGACAAAUCUGCCACAUAGCUUGAGAGCAUCUUCGGAUGCAGAGGCGGCAGCUUUCGGUGGCGCGAUAGCGCCAACGUUCUCAACUAUGACACGCAAAACGCGUGCUCCGUUGAAUGGAGUUUAUCAUG, GGAUCUUCUCGAUCUAACAAAAAAGACAAAUCUGCCACAUAGCUUGAGAGCAUCUUCGGAUGCAGAGGCGGCAGCCUUAGGUGGCGUGAUAGCGCCAACGUUCUCAACUAUGACACGCAAAACGCGUGCUCCGUUGAAUGGAGUUUAUCAUG is lower in “polymerase ribozyme fitness (log ratio)” value: -0.102 for the first, ≤ -4.2 for the second.

With GGAUCUUCUCGAUCUAACAAAAAAGACAAAUCUGCCACAUAGCUUGAGAGCAUCUUCGGAUGCAGAGGCGGCAGCCUUCGGUGGCGGGAUAGCGCCAACGUUCUCAACUAUGACACGCAAAACGCGUGCUCCUUGGAAUGGGGUUUAUCAUG the “polymerase ribozyme fitness (log ratio)” value was ≤ -4.2.
